According to PubChem BioAssay AID652104 (National Center for Advancing Translational Sciences (NCATS), 2013):
The campaign covered roughly 410,000 compounds. About 7,200 (1.8%) were called active. The shares of active, inactive and inconclusive entries below differ from those in the screen. Calls follow the shape of the dose curve; as a rule, active = well fitted activation curve with a large enough effect; inconclusive = small, poorly fitted or top-dose-only effect, or another doubt; inactive = no such curve, though single readings can be large or run the other way. Potencies of inconclusive entries are left out as doubtful fits.

assay: qHTS of TDP-43 Inhibitors; settings: TDP-43 expressing yeast growth rescue, BacTiter-Glo, 24 h; growth rescue (activation): at 46.1 µM (top of the series) unless noted; also: nearly all actives have a fitted effect of over 50% in size; as to growth rescue (activation): % of control where 0% means no effect
Outline: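 Cell-based yeast growth screen: TDP-43 expression induced in galactose, inoculum OD600=0.02 after raffinose pregrowth to mid-log. Read-out BacTiter-Glo luminescence at 24 hr, 30 deg C; inhibition of toxicity seen as signal increase.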
Potency is read from the fitted curve at half-maximal effect; tags tell the direction and shape of the fitted curve.

SMILES | Potency | growth rescue (activation)
CSC(=NC#N)N1CCN(c2ccccc2)CC1 | inconclusive [activator, single point] | –
CCCCCCCCCCCCCCCC(=O)NCCO | inactive | –
Cc1ccc(NC(=O)C2CC(=O)NC(N3CCCCC3)=N2)cc1Cl (stereo unspecified) | inconclusive [activator, partial curve] | –
Cc1cccc(-c2nnc(SCC(=O)N3CCCc4ccccc43)o2)c1 | inconclusive [activator, partial curve, poor fit] | –
COc1cc2c(cc1OC)C(COc1ccc(F)cc1)N(C(=O)c1ccccc1F)CC2 (stereo unspecified) | inconclusive [activator, partial curve] | –
O=C(COC(=O)c1ccc2ncsc2c1)Nc1cc(Cl)ccc1F | active: 14.1 µM | –
CCOCCCNC(=O)Nc1cc(C(=O)NCc2ccc(C(C)C)cc2)ccc1N1CCCC1 | inactive | –
CC(=O)c1ccc(OCCOc2ccc([N+](=O)[O-])cc2)cc1 | inconclusive [activator, single point] | –
Fc1ccc(COc2ccc(C(=S)N3CCCC3)cc2)cc1 | active: 12.6 µM | –
COc1ccccc1CC(=O)N1CCN(c2ccccc2F)CC1 | inconclusive [activator, partial curve, poor fit] | –
NNc1nc(-c2ccccc2)c2cc(Br)ccc2n1 | inconclusive [activator, single point] | –
CCC(=O)N/C(N)=N/c1nc(C)c2cc(OC)ccc2n1 | inactive | –
Cc1ccccc1-c1nc(CS(=O)(=O)CC(=O)Nc2cccc(C(F)(F)F)c2)c(C)o1 | inactive | –
O=C(c1cccc(Cl)c1)N(Cc1ccco1)Cc1ccccc1Cl | inconclusive [activator, single point] | –
COc1ccc2c(c1)CCC/C2=N/OC(=O)c1ccccc1OC | active: 15.8 µM | –
O=C(Nc1nnc(-c2ccc3c(c2)CCCC3)o1)c1ccccc1Cl | active: 10 µM | –
CCN(CC)S(=O)(=O)c1cccc(-c2n[nH]c(=S)n2/N=C/c2ccc(OC(F)F)cc2)c1 | inconclusive [activator, single point] | –
Cc1cncc(NCc2cccc(Cl)c2)n1 | inconclusive [activator, single point] | –
CCOC(=O)c1c(NC(=O)CN2CCOCC2)sc2c1CCCC2=O | inactive | –
O=C(OCc1cccc([N+](=O)[O-])c1)c1ccncc1 | inconclusive [activator, single point] | –
O=C(CCl)N(Cc1cccc([N+](=O)[O-])c1)c1cccc(Cl)c1 | inconclusive [activator, single point] | –
CCCCc1nc(NCCNC(=O)c2ccco2)c(C#N)c2c1CSC(C)(C)C2 | inconclusive [activator, partial curve] | –
Cc1nn(C(=O)c2cccnc2)c(C)c1Sc1ccc(Br)cc1 | inconclusive [activator, single point] | –
Cc1ccc(NC(=O)CN2C(=O)CSc3ccc(S(=O)(=O)N4CCCC4)cc32)c(C)c1 | inactive | –

SMILES | Potency | growth rescue (activation)
COc1cc(NC(=O)COC(=O)c2ccccc2F)cc(OC)c1 | inconclusive [activator, partial curve] | –
O=C(N/N=C/C=C/c1ccccc1)c1ccncc1 | inactive | –
CC(C)N(Cc1nnc(-c2ccc(Cl)cc2)o1)C(=O)c1cc2ccccc2o1 | inconclusive [activator, single point] | –
COc1ccc(OC)c(CCNc2nccn(-c3ccc(C)c(C)c3)c2=O)c1 | inconclusive [activator, partial curve] | –
NNC(=O)/C(=C/c1cccs1)NC(=O)c1ccccc1Cl | inactive | –
Cc1ccc(CNC(=O)CCC(=O)N2Cc3ccccc3Oc3ncccc32)cc1 | – | inactive: 14.9% [at 9.22 µM]
CN(C)Cc1c(C(=O)N/N=C/c2ccc(-c3ccccc3)cc2)nnn1-c1nonc1N | inconclusive [activator, single point] | –
COc1ccccc1/C=C/C(=O)OC(C)CN1CCCCC1 (stereo unspecified) | inconclusive [activator, single point] | –
CCOC(=O)c1ccc2c(c1)N(Cc1cccc(C(F)(F)F)c1)C(=O)c1ccccc1S2(=O)=O | inconclusive [activator, partial curve] | –
Cc1ccc(/C(N)=N/OC(=O)c2cccs2)cc1 | – | inconclusive: -94.3% [activator]
COc1ccc(NC(=O)Cc2csc(COc3cccc(C)c3)n2)cc1OC | inconclusive [activator, partial curve, poor fit] | –
COc1ccc(N2CC(NC(=O)c3ccc4c(c3)OCO4)CC2=O)cc1OC (stereo unspecified) | inactive | –
COc1ccc(OC)c(CNc2ccc([N+](=O)[O-])cc2C)c1 | inconclusive [activator, single point] | –
COc1ccc2c(c1)c1c(c(=O)n(-c3ccccc3)c(=O)n1CC(=O)Nc1ccc(F)cc1)n2C | inconclusive [activator, full curve, poor fit] | –
CN(C)/C=C(/C(=O)c1ccc(Cl)cc1Cl)S(=O)(=O)c1ccccc1 | inactive | –
CCOc1ccc(-n2c(-c3ccccc3)nnc2-c2ccccc2)cc1 | inconclusive [activator, single point] | –
c1coc(-c2nc3c4c5c(sc4ncn3n2)CCCC5)c1 | inconclusive [activator, single point] | –
O=S(=O)(c1ccccc1)c1ncc(C(F)(F)F)cc1Cl | inconclusive [activator, partial curve] | –
COc1cccc(CNC(=O)CCSCc2ccccc2F)c1 | active: 14.1 µM | –
COc1cc(Cl)ccc1OC(=O)c1cn(-c2ccccc2OC)c(=O)c2ccccc12 | inconclusive [activator, full curve] | –
C=CCNc1nc(NCc2cccc(OC)c2)c2sc(-c3ccccc3)cc2n1 | inconclusive [activator, full curve, poor fit] | –
Fc1cccc(Cl)c1CNc1n[nH]c(-c2ccco2)n1 | inconclusive [activator, partial curve, poor fit] | –
Cc1nn(-c2ccc(C(F)(F)F)cn2)c(C)c1Oc1ccccc1O | inactive | –
O=C(NCc1ccccc1Cl)c1ccc[nH]1 | inconclusive [activator, partial curve] | –

SMILES | Potency | growth rescue (activation)
CC(C)c1nnc(NC(=O)c2nc(SCc3ccc(F)cc3)ncc2Cl)s1 | inactive | –
CCOc1ccc(OCCC(=O)OCC(=O)Nc2cc(OCC)c(N3CCOCC3)cc2OCC)cc1 | inconclusive [activator, partial curve] | –
CCCSc1ncc(Cl)c(C(=O)Nc2sc3c(c2C(=O)NCC)CCCC3)n1 | inconclusive [activator, full curve] | –
CCc1ccc(NS(=O)(=O)c2cc3c(cc2C)n(C)c(=O)c(=O)n3C)cc1 | inconclusive [activator, partial curve] | –
COC(=O)C1CN(C(=O)COc2ccc(Cl)c(C)c2)c2ccccc2O1 (stereo unspecified) | – | inconclusive: 76.9% [activator]
Cc1ccc(/C=C/C(=O)N2CCCN(C(=O)/C=C/c3ccc(C)cc3)CC2)cc1 | inconclusive [activator, single point] | –
COc1ccc2ccc(OC)c(/C=N/NC(=O)c3cc4ccccc4o3)c2c1 | inconclusive [activator, single point] | –
CCCn1ccc2c(OCC(=O)NCc3ccc(F)cc3)cccc2c1=O | inconclusive [activator, partial curve, poor fit] | –
C[C@H](CO)N1C[C@H](C)[C@@H](CN(C)CC2CCCCC2)Oc2c(NC(=O)Cc3ccccc3)cccc2C1=O | inactive | –
COc1ccc(CCNC(=O)/C=C/c2ccc3ccccc3n2)cc1OC | inconclusive [activator, single point] | –
S=C1NC[C@H](Cc2ccccc2)N1CC1CCN(CCCC2CCCC2)CC1 | inactive | –
S=c1[nH]nc(-c2ccco2)n1/N=C/c1ccc(Cl)cc1Cl | inconclusive [activator, partial curve] | –
COc1ccc2ccccc2c1/C=N/Nc1ccc(Cl)c(C(=O)O)c1 | inactive | –
CCOc1ccc(CNCc2c(C(=O)O)c(C)n(Cc3ccc(F)cc3Cl)c2C)cc1 | inactive | –
CCOC(=O)[C@]12CCC=C1N(Cc1ccc(Cl)cc1Cl)C(=O)[C@H](CC(=O)N1CCCC1)C2 | inconclusive [activator, single point] | –
COc1ccc(NC(=O)CSc2nccn2Cc2ccc(F)cc2)cc1 | inconclusive [activator, partial curve] | –
Cc1cccc(C)c1NC(=O)COC(=O)c1cc(=O)c2ccccc2o1 | inactive | –
COc1ccccc1Cc1c(-c2cccc(Br)c2)nc2c(C)cc(Br)cn12 | inconclusive [activator, single point] | –
O=C(NCc1ccc(F)cc1)C(c1ccccc1)c1ccccc1 | inactive | –
Cc1ccc(-c2cnn(-c3cccc(C(F)(F)F)c3)c2N)cc1 | inactive | –
CC(=O)c1cccc(N(C(=O)Cn2nnc3ccccc32)C(C(=O)NCc2ccccc2)c2ccc(F)cc2)c1 (stereo unspecified) | inactive | –
CCOc1ccccc1C(=O)Nc1ccc2nc(N3CCN(c4ncccn4)CC3)cc(C)c2c1 | active: 17.8 µM | –
O=C(NC1CCCc2ccccc21)C1CCN(c2nnc(-n3cccc3)s2)CC1 (stereo unspecified) | inconclusive [activator, single point] | –
